This is an account of results in article PMC4705661.

Protein sequences, listed by entry. Tags and fused reporters are not part of them. Lines headed by an entry give the natural chain unless they say otherwise; changes in a name come on top. Residues count along the entry.
UniProt P37542: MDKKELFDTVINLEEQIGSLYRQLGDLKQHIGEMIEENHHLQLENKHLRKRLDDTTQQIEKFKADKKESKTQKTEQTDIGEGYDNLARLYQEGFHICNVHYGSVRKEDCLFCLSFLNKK
YabA^62–119, GAL4 fusion (yeast two-hybrid): residues 62-119 of P37542

In test [1] the target is YabA F94S, BD fusion (B. subtilis) (UniProt P37542). Briefly: two-hybrid; BD-YabA wild type or mutants (pGBDU) mated with AD-DnaA, AD-DnaN or AD-YabA (pGAD); growth on -LUH and -LUA.
The target of test [2] is YabA R105E, BD fusion (B. subtilis) (UniProt P37542). Described as above.
For test [3], the target named is YabA H95L, BD fusion (B. subtilis) (UniProt P37542). The test is described as above.
The target of test [4] is YabA E107T, BD fusion (B. subtilis) (UniProt P37542). The test is described as above.
Test [5] has as its target YabA F94Y, BD fusion (B. subtilis) (UniProt P37542). Described as above.
For test [6], the target named is YabA full length, GAL4 fusion (yeast two-hybrid) (B. subtilis) (UniProt P37542). The description is as above.
For test [7], the target named is YabA H95G, BD fusion (B. subtilis) (UniProt P37542). The test is described as above.
The target in test [8] is YabA D108S, BD fusion (B. subtilis) (UniProt P37542). The description is as above.
Test [9] concerns the target YabA H95I, BD fusion (B. subtilis) (UniProt P37542). The description is as above.
In test [10] the target is YabA E107R, BD fusion (B. subtilis) (UniProt P37542). Described as above.
The target of test [11] is YabA F111Y, BD fusion (B. subtilis) (UniProt P37542). Described as above.
Test [12] has as its target YabA^62–119, GAL4 fusion (yeast two-hybrid) (B. subtilis) (UniProt P37542). Briefly: two-hybrid; GAL4 BD (pGBDU-C1) and AD (pGAD-C1) fusions, mating of PJ69-4 haploids, growth on SD-LUH and SD-LUA.
Test [13] deals with YabA full length expressed from the p3HB vector (third protein of the yeast three-hybrid assay) (B. subtilis) (UniProt P37542). The test is described as follows: yeast three-hybrid; full length YabA from p3HB co-expressed with BD and AD fusions of DnaA and DnaN; growth on SD-LUWH and SD-LUWA.
Test [14] has as its target N-terminally histidine tagged YabA (co-expressed with DnaN) (B. subtilis) (UniProt P37542). The test is described as follows: co-purification (HisTrap, then gel filtration); histidine tagged YabA and DnaN co-expressed in E. coli; complex eluted from HisTrap with imidazole and run on Superdex 200 in 30 mM Tris pH 8, 150 mM NaCl, 5% glycerol. On the technique in general: In gel filtration, larger molecules generally elute earlier.

Results are given in words; binding and its absence hold for the method and conditions named. Some results given as binding are weak or reduced against the parent protein; the word gives no strength. Where a sequence is shown, tags or fusion partners need not be part of it.

B1: DnaN, GAL4 fusion (yeast two-hybrid and three-hybrid) (protein, UniProt P05649 1-378)
chain: MKFTIQKDRLVESVQDVLKAVSSRTTIPILTGIKIVASDDGVSFTGSDSDISIESFIPKEEGDKEIVTIEQPGSIVLQARFFSEIVKKLPMATVEIEVQNQYLTIIRSGKAEFNLNGLDADEYPHLPQIEEHHAIQIPTDLLKNLIRQTVFAVSTSETRPILTGVNWKVEQSELLCTATDSHRLALRKAKLDIPEDRSYNVVIPGKSLTELSKILDDNQELVDIVITETQVLFKAKNVLFFSRLLDGNYPDTTSLIPQDSKTEIIVNTKEFLQAIDRASLLAREGRNNVVKLSAKPAESIEISSNSPEIGKVVEAIVADQIEGEELNISFSPKYMLDALKVLEGAEIRVSFTGAMRPFLIRTPNDETIVQLILPVRTY
On to B1, for which the binding result is “binds” in test [1]; “binds” in [2]; “no binding” in test [3]; “no binding” in test [4]; “binds” in test [5]; “binds” in test [6]. The binding result was “binds” in test [7]; “no binding” in test [8]; “no binding” in [9]; “no binding” in test [10]; “no binding” in [11]; “binds” in test [12]. In addition, in [13], the binding result is “binds”.

B2: DnaN (co-expressed with histidine tagged YabA) (protein, UniProt P05649 1-378)
chain: B1 chain
For the molecule B2, the binding result in [14] is “binds”.
